Experimental data taken from publication PMC6919601, “Identification of Plasmodium dipeptidyl aminopeptidase allosteric inhibitors by high throughput screening” (PLoS ONE, 2019).
Hit rate of the full screen: of about 110,000 compounds, about 230 (0.21%) showed an effect of 50% or more. This is one part of the list.

Target: DPAP1 (Plasmodium falciparum, UniProt Q8IIJ9)
Experiment: primary screen, percent inhibition; read by cleavage of a fluorogenic dipeptide substrate; higher = more effect of the substance
Set-up: species or system P. falciparum D10 trophozoite lysates; single well
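Further: 30 min substrate incubation versus DMSO and 10 µM JCP410 controls.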

DPAP1, sequence (Q8IIJ9 whole entry, looked up): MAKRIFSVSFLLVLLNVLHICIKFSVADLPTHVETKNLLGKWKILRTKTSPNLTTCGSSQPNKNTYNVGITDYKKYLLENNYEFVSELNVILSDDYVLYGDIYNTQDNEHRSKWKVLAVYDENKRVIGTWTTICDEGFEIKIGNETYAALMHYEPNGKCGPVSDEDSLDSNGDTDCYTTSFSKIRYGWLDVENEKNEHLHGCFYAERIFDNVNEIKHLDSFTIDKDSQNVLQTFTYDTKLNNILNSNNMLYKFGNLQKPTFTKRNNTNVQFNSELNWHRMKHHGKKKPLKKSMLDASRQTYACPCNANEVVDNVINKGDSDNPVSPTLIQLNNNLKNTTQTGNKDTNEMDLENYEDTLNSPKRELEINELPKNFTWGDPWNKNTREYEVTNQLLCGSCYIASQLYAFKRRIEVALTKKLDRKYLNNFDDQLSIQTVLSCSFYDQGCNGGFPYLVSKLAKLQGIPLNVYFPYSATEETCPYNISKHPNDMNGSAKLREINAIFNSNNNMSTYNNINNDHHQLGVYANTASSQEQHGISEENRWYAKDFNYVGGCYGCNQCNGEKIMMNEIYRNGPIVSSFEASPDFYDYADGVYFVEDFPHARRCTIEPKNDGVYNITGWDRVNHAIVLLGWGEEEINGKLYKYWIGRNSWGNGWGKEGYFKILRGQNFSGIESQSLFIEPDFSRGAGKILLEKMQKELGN

Going from `Cc1nnc2c(NCCC(C)C)nc3ccccc3n12` to `Cc1ccc(O)c(NC(=O)c2ccc3c(c2)C(=O)N(CCC(C)C)C3=O)c1`, the “% Inhibition @ 10 uM” value rises from -2.88% to 13.2%.

First: Cc1ccc(N(CC(=O)N2CCCCC2)S(=O)(=O)c2ccc(C)cc2)cc1
Second: Cc1ccc(CN(CC(=O)NC(C)(C)C)S(=O)(=O)c2ccc(Br)cc2)cc1
The “% Inhibition @ 10 uM” value of the first is lower: -1.95% for the first, 1.08% for the second.

First: Cc1cc(C)nc(NS(=O)(=O)c2ccc(NC(=O)c3cc(Cl)ccc3Cl)cc2)n1
Second: NS(=O)(=O)c1ccc(NC(=O)c2ccc3c(c2)OCO3)cc1
The “% Inhibition @ 10 uM” value of the first is lower: -0.425% for the first, 1.88% for the second.

Going from `CCSc1nc2sc3c(c2c(=O)n1CC)CCC3` to `N#Cc1c(NC(=O)c2cccc(S(=O)(=O)N3CCCC3)c2)sc2c1CCCC2`, the “% Inhibition @ 10 uM” value rises from -1.99% to 2.01%.

Going from `COc1cc(OC)c(CN2CCCN(C)CC2)cc1Br` to `COc1cc(CN2COc3c(Cl)cc4c5c(c(=O)oc4c3C2)CCC5)cc(OC)c1OC`, the “% Inhibition @ 10 uM” value falls from -0.192% to -0.808%.

Going from `Cc1ccccc1-c1nc(CN2CCC(C(=O)NC3CCN(Cc4ccccc4)CC3)CC2)c(C)o1` to `O=C(N1CCC(Cc2ccccc2)CC1)C1(S(=O)(=O)c2ccc(Cl)cc2)CC1`, the “% Inhibition @ 10 uM” value rises from -6.4% to 3.5%.

First: Cc1ccc2c(c1)-c1c(cnn1CC(=O)N(C)C1CCCCC1)CO2
Second: Cc1cccc(CN2CCC(O)CC2)c1
The “% Inhibition @ 10 uM” value of the first is lower: 1.93% for the first, 3.1% for the second.

First: O=C(Nc1n[nH]c(-c2n[nH]c(NC(=O)C(F)(F)F)n2)n1)C(F)(F)F
Second: O=C(O)c1ccc(Nc2nc(C(F)(F)F)c(-c3ccccc3)s2)cc1
The “% Inhibition @ 10 uM” value of the first is lower: -2.72% for the first, 6.31% for the second.

Compared with `CC(=O)Nc1ccc(N/C=C2/C(=O)NC(=O)N(c3ccccc3)C2=O)cc1`, `COc1cc(NC(=O)COc2ccccc2)ccc1NC(=O)c1ccco1` is lower in “% Inhibition @ 10 uM” value: 0.76% for the first, -1.65% for the second.

Compared with `CCOC(=O)C1=C(C)N=c2s/c(=C\c3ccc(OC)c(OC)c3)c(=O)n2C1c1ccc(N(C)C)cc1` (stereo not shown), `CCOC(=O)/C(C#N)=C/c1c(Oc2ccc(CC)cc2)nc2c(C)cccn2c1=O` is higher in “% Inhibition @ 10 uM” value: -5.92% for the first, -1.43% for the second.

Compared with `CN1CCN(C(=O)CCCN2C(=O)c3ccccc3Sc3ncccc32)CC1`, `COc1ccccc1N1CCN(CCCN2C(=O)C3CCCN3C2=O)CC1` (stereo not shown) is lower in “% Inhibition @ 10 uM” value: 2.6% for the first, -0.0619% for the second.

Going from `O=C1Nc2c(Br)cc(Br)c3cccc1c23` to `O=C(CC1Sc2ccccc2NC1=O)Nc1ccc(O)c(Cl)c1` (stereo not shown), the “% Inhibition @ 10 uM” value falls from 0.98% to 0.795%.

Going from `Cc1cc(C(F)F)nn1CC(=O)Nc1cccc(Br)c1` to `COc1cc(NC(=O)c2cnn3c(C(F)F)cc(-c4ccccc4)nc23)cc(OC)c1OC`, the “% Inhibition @ 10 uM” value rises from 0.5% to 8.08%.

Going from `COc1ccc(CCNC(=O)c2cc(Cl)ccc2OC)cc1OC` to `CCOc1ccccc1/C=C1/N=C(c2cc(Cl)ccc2OC)OC1=O`, the “% Inhibition @ 10 uM” value falls from 8.71% to 1.25%.

First: COc1ccc(CCC(=O)Nc2ccn(Cc3cccc4ccccc34)n2)cc1
Second: COc1ccc(CC(=O)Nc2ccccc2NC(=O)Cc2ccc(OC)cc2)cc1
The “% Inhibition @ 10 uM” value of the first is lower: -6.65% for the first, -1.39% for the second.

Going from `Nc1cc(NC(=O)c2cccc(Cl)c2)cc(Oc2cccnc2)c1` to `O=C(/C=C/c1ccc(Cl)cc1Cl)Nc1ccc2c(c1)OCO2`, the “% Inhibition @ 10 uM” value rises from -1.04% to 5.31%.

First: CS(=O)(=O)N(CC(=O)NCc1ccco1)c1ccccc1Br
Second: NC(=O)Nc1ccccc1C(=O)NCCc1ccccc1
The “% Inhibition @ 10 uM” value of the first is lower: 2.43% for the first, 4.97% for the second.

First: CCC1CCCCN1C(=O)Cn1c(C(=O)OC)cc2sc(C)cc21 (stereo not shown)
Second: COC(=O)c1ccc(C2CC(=O)N3C(=C2C#N)SCC3(O)c2ccc(C)cc2)cc1 (stereo not shown)
The “% Inhibition @ 10 uM” value of the first is lower: -9.3% for the first, 1.64% for the second.

Going from `CCC(C)Oc1ccc(/C=C2\NC(=O)N(Cc3ccc(Cl)cc3)C2=O)cc1` (stereo not shown) to `CC(C)CC(=O)N1CCN(CC/N=C/C2=C(O)CC(c3ccc(Cl)cc3)CC2=O)CC1` (stereo not shown), the “% Inhibition @ 10 uM” value rises from -4.93% to -1.6%.

First: Cc1[nH]c2ccccc2c1C(Nc1ccc(F)cc1)c1ccncc1 (stereo not shown)
Second: FC(F)(F)c1ccccc1C1CC(c2ccc(Br)cc2)=NN1c1ccccc1 (stereo not shown)
The “% Inhibition @ 10 uM” value of the first is lower: -5.57% for the first, 0.219% for the second.

First: O=C1CC(c2ccc([N+](=O)[O-])cc2)=NN1c1cc(S(=O)(=O)O)ccc1Cl
Second: CCCc1nn(-c2ccc(F)cc2)c(O)c1/C=N/Cc1ccc2c(c1)OCO2
The “% Inhibition @ 10 uM” value of the first is higher: -1.74% for the first, -4.6% for the second.

Going from `CN1C(C(=O)c2ccccc2)=C(O)c2ccccc2S1(=O)=O` to `COc1ccccc1[C@@H](C)C[C@H](NC(=O)OCc1ccccc1)C(=O)NCC#N`, the “% Inhibition @ 10 uM” value falls from 3.5% to -5.2%.

Compared with `CCCCN(C)S(=O)(=O)c1csc(C(N)=O)c1`, `CCN(CC)c1ncnc2sc(C(=O)N(C)Cc3ccccc3)c(C)c12` is higher in “% Inhibition @ 10 uM” value: -0.256% for the first, 1.2% for the second.

Going from `Cc1ccc(OCC(=O)c2cc(C)c(O)cc2O)cc1` to `Cc1ccc(-n2nc3c(=O)n(CCCC(=O)NCc4cccnc4)nc(C)c3c2C)cc1`, the “% Inhibition @ 10 uM” value falls from 10.2% to -0.665%.

For `C/C=C/C=C/C(=O)Nc1cnc(O)nc1O`, the “% Inhibition @ 10 uM” value was 4.81%.
